B1: Fc_hRLX2_15-15AA (Fc fusion)
chain: [no letters for human IgG1 Fc]GGGGSGGGGSGGGGSQLYSALANKCCHVGCTKRSLARFCGGGGSGGGGSGGGGSSWMEEVIKLCGRELVRAQIAICGMSTWS
B2: Fc_hRLX2_4-15AA (Fc fusion)
chain: [no letters for human IgG1 Fc]GGSPQLYSALANKCCHVGCTKRSLARFCGGGGSGGGGSGGGGSSWMEEVIKLCGRELVRAQIAICGMSTWS

Tests used:
Test in all cases: cell-based or functional assay
[1] = target: T1, human RXFP1 receptor (human, UniProt Q9HBX9 1-757)
T1 sequence (looked up): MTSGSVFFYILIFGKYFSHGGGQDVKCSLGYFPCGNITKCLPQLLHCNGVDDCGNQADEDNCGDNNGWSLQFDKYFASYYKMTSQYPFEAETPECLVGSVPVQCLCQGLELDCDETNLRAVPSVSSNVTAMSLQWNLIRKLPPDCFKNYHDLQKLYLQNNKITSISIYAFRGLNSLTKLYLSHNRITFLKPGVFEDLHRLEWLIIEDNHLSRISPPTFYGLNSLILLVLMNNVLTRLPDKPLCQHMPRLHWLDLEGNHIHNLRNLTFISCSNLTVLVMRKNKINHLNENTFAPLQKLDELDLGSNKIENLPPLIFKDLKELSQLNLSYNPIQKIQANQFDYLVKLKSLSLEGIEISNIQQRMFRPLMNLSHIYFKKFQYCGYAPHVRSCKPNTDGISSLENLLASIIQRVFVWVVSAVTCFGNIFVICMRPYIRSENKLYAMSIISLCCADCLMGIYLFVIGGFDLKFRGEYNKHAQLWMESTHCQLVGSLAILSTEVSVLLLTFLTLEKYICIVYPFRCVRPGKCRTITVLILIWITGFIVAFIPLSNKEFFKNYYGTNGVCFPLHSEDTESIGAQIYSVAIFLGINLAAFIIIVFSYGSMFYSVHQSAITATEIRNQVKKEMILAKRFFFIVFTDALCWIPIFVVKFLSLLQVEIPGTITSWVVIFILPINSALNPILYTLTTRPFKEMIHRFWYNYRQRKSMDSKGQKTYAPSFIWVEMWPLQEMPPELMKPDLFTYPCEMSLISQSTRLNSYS

[2] = target: T1, human RXFP1 receptor; remark: listed apart in the source
[3] = target: T2, human RXFP2 (human, UniProt Q8WXD0 1-754)
T2 sequence (looked up): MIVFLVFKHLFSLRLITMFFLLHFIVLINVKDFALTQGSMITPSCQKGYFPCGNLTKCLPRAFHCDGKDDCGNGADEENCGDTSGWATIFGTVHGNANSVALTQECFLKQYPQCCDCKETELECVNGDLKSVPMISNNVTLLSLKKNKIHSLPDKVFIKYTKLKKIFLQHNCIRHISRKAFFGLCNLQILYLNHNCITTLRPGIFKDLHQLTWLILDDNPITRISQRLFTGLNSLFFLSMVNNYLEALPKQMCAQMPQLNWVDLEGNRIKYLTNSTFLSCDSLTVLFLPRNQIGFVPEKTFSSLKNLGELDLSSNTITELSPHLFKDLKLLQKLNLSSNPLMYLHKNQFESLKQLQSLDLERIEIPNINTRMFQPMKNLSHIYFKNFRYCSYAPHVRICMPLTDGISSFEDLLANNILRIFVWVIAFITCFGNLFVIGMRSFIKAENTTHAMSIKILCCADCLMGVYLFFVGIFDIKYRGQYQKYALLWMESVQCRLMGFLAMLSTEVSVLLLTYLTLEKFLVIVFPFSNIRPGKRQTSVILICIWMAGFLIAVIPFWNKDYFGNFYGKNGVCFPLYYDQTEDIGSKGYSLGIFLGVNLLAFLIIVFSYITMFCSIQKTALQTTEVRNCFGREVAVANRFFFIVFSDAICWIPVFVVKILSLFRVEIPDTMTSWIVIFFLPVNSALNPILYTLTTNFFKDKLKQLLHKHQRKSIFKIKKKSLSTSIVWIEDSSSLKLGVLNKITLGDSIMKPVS

[4] = target: T3, mouse RXFP1 receptor (mouse, UniProt Q6R6I7 1-758)
T3 sequence (looked up): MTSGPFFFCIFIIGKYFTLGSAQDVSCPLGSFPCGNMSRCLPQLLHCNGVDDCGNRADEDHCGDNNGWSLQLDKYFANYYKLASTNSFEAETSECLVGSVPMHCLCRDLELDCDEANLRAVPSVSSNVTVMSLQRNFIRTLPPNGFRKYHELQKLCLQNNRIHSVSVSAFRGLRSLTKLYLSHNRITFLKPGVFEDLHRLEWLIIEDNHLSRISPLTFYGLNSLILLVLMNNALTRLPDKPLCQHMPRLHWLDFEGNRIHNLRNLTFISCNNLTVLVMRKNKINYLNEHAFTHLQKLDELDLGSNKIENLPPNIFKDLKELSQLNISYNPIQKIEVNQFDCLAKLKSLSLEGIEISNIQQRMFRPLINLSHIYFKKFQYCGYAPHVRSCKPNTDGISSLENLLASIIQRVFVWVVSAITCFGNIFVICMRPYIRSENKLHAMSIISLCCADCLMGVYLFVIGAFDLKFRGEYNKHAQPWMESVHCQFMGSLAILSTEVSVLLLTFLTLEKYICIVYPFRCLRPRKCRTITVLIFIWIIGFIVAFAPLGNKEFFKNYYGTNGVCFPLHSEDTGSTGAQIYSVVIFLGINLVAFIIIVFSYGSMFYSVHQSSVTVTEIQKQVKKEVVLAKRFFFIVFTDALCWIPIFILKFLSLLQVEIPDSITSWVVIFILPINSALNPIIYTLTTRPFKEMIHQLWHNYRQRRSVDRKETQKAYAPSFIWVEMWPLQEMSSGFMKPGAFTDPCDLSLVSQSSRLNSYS

Row | Binder | EC50 (M), stimulation of cAMP production (HitHunter cAMP assay) in CHO-K1 RXFP1 Gs cells [1] [M] | hRXFP1 EC50 (M), cAMP HTRF assay in CHO-K1 RXFP1 Gs cells [2] [M] | hRXFP2 EC50 (M), cAMP HTRF assay in CHO-K1 RXFP2 Gs cells [3] [M] | mRXFP1 EC50 (M), cAMP HTRF assay in CHO-K1 mRXFP1 Gs cells [4] [M]
1 | B1 | 9.84e-10 | 1.84e-09 | > 9.32e-06 | 1.51e-09
2 | B2 | 9.32e-10 |  |  | 
